Experimental data: PubChem BioAssay AID1508623 (National Center for Advancing Translational Sciences (NCATS), 2021)
About 450 (0.94%) of roughly 48,000 compounds were called active. Not shown: some 19% with an inconclusive outcome. Calls come from the whole dose curve; as a rule, active = well fitted inhibition curve with a large enough effect; inconclusive = small, poorly fitted or top-dose-only effect; inactive = no such curve, though single readings can be large or run the other way. The list shows a part of the results.

Experiment: Primary qHTS for Identification of Small Molecule Inhibitors of Huntingtin Promoter Activity; note: nearly all actives have a fitted effect of over 50% in size
Conditions: HEK293 HTT promoter firefly luciferase reporter (activity 0% = vehicle and -100% = no light), 24 h; series mostly up to 57.5 µM; activity change, negative = inhibition: at the top concentration
From the text: Assay Provider: Russell L. Margolis M.D.
Department Neurology, Johns Hopkins University School of Medicine, Baltimore, MD
Huntington's Disease (HD) is a neurodegenerative disorder caused by a CAG repeat expansion in exon 1 of huntingtin (HTT). While there are currently no disease-modifying treatments for HD, recent efforts have focused on development of nucleotide-based therapeutics to lower HTT expression. As an alternative to siRNA or oligonucleotide methods, we hypothesized that suppression of HTT expression might be accomplished by small molecules that either (1) directly decrease HTT expression by suppressing HTT promoter activity or (2) indirectly decrease HTT expression by increasing the promoter activity of HTT-AS, the gene antisense to HTT that appears to inhibit expression of HTT.
We developed and employed a high throughput screen for modifiers of HTT and HTT-AS promoter activity using luminescent reporter HEK293 cells; of the 52,041 compounds tested, we identified 898 replicable hits. We used a rigorous stepwise approach to assess compound toxicity and the capacity of the compounds to specifically lower huntingtin protein in 5 different cell lines, including HEK293 cells, HD lymphoblastoid cells, mouse primary neurons, HD iPSCs differentiated into cortical-like neurons, and HD hESCs. We found no compounds which were able to lower huntingtin without lowering cell viability in all assays, though the potential efficacy of a few compounds at non-toxic doses could not be excluded.
SEQUENCE No. (1, 2, 3, etc.); […] (e.g., Cells, Incubation, Reagent, etc.); VALUE and DESCRIPTION.
1; Reagent; 4 uL; 2,500 Hek293 luciferase reporter cells per wells
3; Compound; 23 nL; Control inhibitor / compound library
5; Reagent; 2.5 uL; Firefly Luc reagent; Dual-Glo Luciferase Reporter Assay System (Promega)
6; Time; 10 min; room temperature incubation
7; Detection; Luminescence; FLuc
NOTES (numbers refer to sequence above)
1; High-throughput screening, measuring luminescence from a Hek293 luciferase reporter, was performed in 1,536 well white-walled tissue-culture treated plates. 2,500 cells were plated in 4 µL of Opti-MEM per well using a Multidrop Combi Reagent Dispenser (ThermoFisher).
2; Assay plates were cultured for 24 hours.
3; Control inhibitor (PTC124; final concentration of 50 uM) and compound library (at final concentrations of 460 nM - 57.5 uM) were added to the assay plate using the Kalypsis Pintool Robotic System equipped with 1536 pinheads.
4; Cells were then incubated for 24 hours at 37 degrees C prior to luminescence measurements.
5; In all cases, luminescence was measured using the Dual-Glo Luciferase Reporter Assay System (Promega) following the manufacturer's instructions.
6; Room temperature incubation.
7; Luminescence signal was obtained using the PerkinElmer ViewLux plate reader. Results were normalized to vehicle control (0% activity) and zero RLU (-100% activity).

Activity change, negative = inhibition, inactive:
COc1ccc(Cn2c(=O)[nH]c3cc(C(=O)N4CCN(c5cccc(OC)c5)CC4)ccc3c2=O)cc1 0.309%
Cn1cc(C(=O)NCc2ccc(Cl)cc2)c(=O)c2cc(S(=O)(=O)N3CCCCCC3)ccc21 -14.6%
COc1cccc(C(=O)Nc2cc3cc(OC)ccc3oc2=O)c1 0%
Cc1cc(C)c2c(n1)SCCN2C(=O)Nc1ccc(C(=O)Nc2cc(Cl)ccc2C)cc1 -12.9%
Cc1cc(C(=O)NCCc2ccc(Cl)cc2)c2c(C)nn(-c3cccc(F)c3)c2n1 -3.44%
COC(=O)c1cc2sc(Cl)cc2n1Cc1nc(-c2ccc(OC)cc2)oc1C -6.96%
COc1ccc(N(CC(=O)NCCc2cccc(C)c2)S(=O)(=O)c2c(C)noc2C)cc1 -29.4%
O=C(Nc1nnc(S(=O)(=O)N2CCN(c3ccc(F)cc3)CC2)s1)c1ccc(Cl)cc1 -7.12%
Cc1ccc(Cl)cc1NC(=O)COCc1cc(-c2ccco2)on1 9.39%
CCCCSCCCNC(=O)CN1C(=O)COc2ccc(S(=O)(=O)N3CCC(C)CC3)cc21 -19.9%
Cc1ccc(NC(=O)Cn2c(CCC(=O)O)ccc2-c2ccc(Cl)cc2)cc1 -12%
COC(=O)c1ccc(NC(=O)Cn2nc(C(=O)Nc3ccc(C)cc3)ccc2=O)cc1 -9.86%
CCN(CC)S(=O)(=O)c1ccc2c(c1)N(CC(=O)N(C)Cc1ccccc1)C(=O)CO2 -12.8%
Cc1ccc(Cn2cc(CCC(=O)NCc3ccccc3F)c3ccccc32)cc1 -19.4%
O=C(CNC(=O)c1ccc(Cl)cc1)OCc1cc(=O)n2ccsc2n1 -8.74%
COc1ccc(-c2[nH]c3c(c2-c2c(-n4cccc4)n(C)c(=O)n(C)c2=O)c(=O)n(C)c(=O)n3C)cc1 -2.83%
COc1cccc(CNC(=O)C(NS(=O)(=O)c2ccc3c(c2)oc(=O)n3C)C(C)C)c1 (stereo not drawn) -9.55%
Cc1c(C(=O)OCC2CCCCC2)[nH]c2c1C(=O)CC(c1ccc(Cl)cc1)C2 (stereo not drawn) 3.05%
Cc1cccc(NC(=O)CSc2nc(C3CCCC3)nc3c2c(=O)n(C)c(=O)n3C)c1C 10.1%
Cc1nnsc1C(=O)Oc1ccc(C(C)C)cc1 -6.88%
COc1ccc2c(c1)-c1nc(NC(=O)c3ccccc3F)sc1CC2 -0.851%
CCN(CC)C(=O)c1sc2c(c1C)c(=O)n(-c1ccc(C)c(C)c1)c(=O)n2Cc1cc(=O)n2c(C)cccc2n1 -1.11%
CCn1c(=O)cc(OCC(=O)NCc2ccccc2Cl)c2ccccc21 0.249%
COc1ccc(CNC(=O)CSc2ncc3c(n2)-c2cc(Cl)ccc2N(Cc2ccccc2)S3(=O)=O)cc1OC -27.5%
O=C(c1ccccc1)n1nc(-c2ccco2)nc1NCc1cccs1 3.62%
COc1cc2c(cc1OC)CN(CCc1ccc(NC(=O)c3cc(OC)c(OC)cc3NC(=O)c3cnc4ccccc4c3)cc1)CC2 -18.9%
O=c1cc(-c2ccccc2)nc2cc(-c3ccc(F)cc3)[nH]n12 6.05%
Cc1ccc(S(=O)(=O)N2CCc3cc(C(=O)Nc4ccc(C)c(C)c4)ccc32)cc1 -21.5%
CCC(=O)OCc1cnc(C)c2oc(=O)c(C(=O)Nc3ccccc3C(F)(F)F)cc12 -8.8%
COc1cc2ccccc2cc1C(=O)Nc1cc(-c2nc3ccccc3o2)ccc1C 16.5%
Cc1cccc(N(C)C(=O)CN(C)S(=O)(=O)c2ccc3[nH]c4c(c3c2)CCCC4)c1 -6.85%
CCCCNc1nc(Oc2ccc(OCCC)nn2)nc(N(C)C)n1 -27.8%
COc1ccc(CC(=O)Nc2c(C(=O)Nc3ccc(F)cc3)oc3ccccc23)cc1OC 22.1%
COc1ccc(OC)c(CCNC(=O)CN2C(=O)COc3ccc(S(=O)(=O)N4CCC(C)CC4)cc32)c1 -24.5%
O=C(CCSCc1ccccc1F)N1CCN(c2ccc(Cl)cc2)CC1 -29.4%
CCCN1CCN(CCNC(=O)Nc2cc(C)ccc2OC)CC1 -15.2%
CCOC(=O)c1ccc(NC2=CC(c3ccc(O)c(OCC)c3)N(c3ccc(C(=O)OCC)cc3)C2=O)cc1 (stereo not drawn) 1.78%
COc1cc2c(C(=O)Nc3ccc(C)cc3Br)cn(C)c(=O)c2cc1OC -8.91%
CCOc1ccccc1NC(=O)c1sc2nc(-c3ccc(OC)cc3)ccc2c1N 15.7%
CCC1CCCCN1CCCNC(=O)c1c(O)nc2c(C)cccn2c1=O (stereo not drawn) -5.03%
N#Cc1ccccc1Cn1c(=O)n(CCCCC(=O)NCc2ccc3c(c2)OCO3)c(=O)c2ccccc21 -12.7%
Cc1ccccc1C(=O)Nc1nnc(S(=O)(=O)N(C)Cc2ccc(Cl)cc2)s1 -8.65%
O=C(Cc1ccc(F)cc1)N1CCC(c2nc3c(nnn3Cc3ccc(F)cc3)c(=O)[nH]2)CC1 -16%
COc1ccc(OCC(=O)Nc2ccc(O)c(-c3nc4ccccc4s3)c2)cc1 -25.3% [at 11.5 µM]
CCCn1c(=O)c2sccc2n2c(CCCC(=O)Nc3ccccc3OCC)nnc12 -11%
COc1ccc(CC(=O)N2CC(=O)Nc3ccc(Br)cc3C2c2ccc(F)cc2)cc1 (stereo not drawn) -28.9%
CCS(=O)(=O)N1CC(=O)N(c2cc(C)ccc2C)C(C)(C(=O)NC2CCCCC2)C1 (stereo not drawn) 6.79%
Cc1ccc(Cl)cc1NC(=O)N1CCC2(CC1)Oc1ccccc1C(=O)N2Cc1ccccc1F -29.2%
COc1ccc(-n2nnc(-c3nsc(NC(=O)c4cccs4)n3)c2C)cc1OC 29.6%
Cc1cccc(NC(=O)C(=O)NCCc2sc(-c3ccccc3)nc2C)c1C -4.86%
Cc1c(Cl)cccc1NC(=O)C(CCS(C)(=O)=O)N1Cc2ccccc2C1=O (stereo not drawn) -9.89%
COc1ccc(-c2cn3c(n2)sc2cc(C(=O)NC4CCCCCC4)ccc23)cc1 -1.39%
CC(=O)c1c(C)oc2ccc(N(C(=O)Oc3ccccc3)S(=O)(=O)c3ccccc3)cc12 -31.4%
CC(CNC(=O)c1cc(-c2ccccc2)n[nH]1)c1ccccc1 (stereo not drawn) 27.2%
CC1CCCN(c2c(S(=O)(=O)c3ccccc3)cnc3ccc(Cl)cc23)C1 (stereo not drawn) -14.3%
Nc1cc(=O)nc(SCC(=O)Nc2ccc(F)cc2)n1-c1cccc(Cl)c1 -18.5% [at 11.5 µM]
Cc1cccc(N2CCN(C(=O)c3c(C)oc4ncnc(N5CCOCC5)c34)CC2)c1C -3.71%
COc1ccc(C)cc1NC(=O)c1cc(S(=O)(=O)N2CCC(C)CC2)cn1C -15%
COc1ccc(CCN2C(=O)N(c3ccc(C)cc3)C(=O)C2CC(=O)Nc2ccc(F)cc2)cc1 (stereo not drawn) -26.5%
Cc1nn(C(=O)COc2ccccc2Br)c(C)c1Sc1ccccc1 -32.8%
CS(=O)(=O)c1ccc(C2=C(c3ccccc3)C(=O)OC2)cc1 0.0629%
COc1cccc(NC(=O)c2sc3nc(C)c(C(=O)Nc4ccc(Cl)cc4)c(-c4ccc(Br)cc4)c3c2N)c1 -20.5%
O=C(CSc1n[nH]c(-c2ccccc2)n1)N1CCN(c2ccccc2F)CC1 -8.63%
Cc1cccc(NC(=O)c2sc3nc(-c4ccccc4)cn3c2C)c1C 6.91%
COc1ccc2c(CNCc3ccccc3OC)c(C(=O)O)n(Cc3ccc(F)cc3Cl)c2c1 7.54%
CCc1ccc(NC(=O)C2CCC(CNS(=O)(=O)c3ccc4c(c3)C(C)(C)C(=O)N4C)CC2)cc1 (stereo not drawn) -13%
COc1ccc2c(Sc3ccc(C)cc3)c(C(=O)NCCc3ccccc3)[nH]c2c1 13.4%
OCc1cnc(SCc2ccc(F)cc2)n1Cc1ccc(F)cc1 -36.2%
CCOC(=O)C1=C(C)NC(=O)NC1c1cn(-c2ccccc2)nc1-c1ccc(OC(C)C)cc1 (stereo not drawn) -4.06%
Cc1nn(C)c2c1c(C(F)(F)F)cc(=O)n2C(C)C(=O)NCCc1ccccc1 (stereo not drawn) -10.8%
O=C(c1ccc(F)cc1)N1CCC(c2nc(-c3ccc(S(=O)(=O)N4CCCC4)cc3)no2)CC1 -9.2%
COc1ccccc1N(CC(=O)Nc1ccc2c(c1)OCO2)S(=O)(=O)c1ccc(C)cc1 -20.6%
O=C(CN1c2ccccc2S(=O)(=O)c2ccccc21)Nc1ccccc1Cl 0%
O=C(Cn1cnc2onc(-c3ccc(F)cc3)c2c1=O)Nc1ccc(F)c(Cl)c1 -19%
CCc1nn(CC(=O)NCCCN2CCN(CC)CC2)c(=O)c2cc3occc3n12 -10.5%
CCCOc1ccc(-c2nonc2NC(=O)c2oc3ccc(Cl)cc3c2C)cc1OCCC -11.9%
O=C(c1ccc2c(c1)N(Cc1c(F)cccc1Cl)C(=O)c1ccccc1S2)N1CCOCC1 -21.3%
Cc1ccc2nc(COc3ccccc3NC(=O)c3ccccc3F)cc(=O)n2c1 -2.54%
CCc1cccc(NC(=O)C2Cc3ccccc3N2C(=O)c2ccccc2)c1 (stereo not drawn) 0%
NC(=O)Cn1c(=O)n(CCCCCC(=O)NCc2ccc(F)cc2)c(=O)c2sccc21 3.02%
COc1ccc(OC)c(NC(=O)CSc2ncc3c(n2)-c2ccccc2N(C)S3(=O)=O)c1 -13.9%
O=C(C1COc2ccccc2O1)N(Cc1cccnc1)c1nc2c(Cl)cccc2s1 (stereo not drawn) -28.5%
CCCNC(=O)c1ccc(-c2nc(CS(=O)(=O)c3ccc(C)cc3)c(C)o2)cc1 -17.4%
COc1cccc(C(=O)Nc2cccc(-c3cn4ccsc4n3)c2)c1OC 9.59%
Cc1ccccc1-c1noc(-c2cccnc2N2CCN(c3ccccc3)CC2)n1 -11.2%
CCOC(=O)c1ccc(NC(=O)CCn2c(=O)c3cccn3c3cccnc32)cc1 -6.93%
O=C(Nc1ccc(F)cc1F)c1cc(-c2ccc(Cl)cc2)on1 2.77%
CCN(CC)C(=O)Cn1c(=O)n(-c2ccc(C)c(C)c2)c(=O)c2c3c(sc21)CCCCC3 -3.91%
COc1ccc(NC(=O)c2ccc3c(SCC(=O)O)c4c(nc3c2)CCCC4)c(OC)c1 -6.4%
O=C(CN1C(=O)COc2ccc(S(=O)(=O)N3CCOCC3)cc21)N1CCN(c2cccc(Cl)c2)CC1 -9.58%
Cc1cccc(-c2nc3c4ccccc4n(Cc4cccc(Cl)c4)c(=O)n3n2)c1 -14.1%
C#CCSc1nc(-c2ccccc2)cc(-c2ccccc2)c1C#N -6.73%
Cc1ccc(-n2c3c(cc(-c4nc(-c5ccc(Cl)cc5)cs4)c2=O)C(=O)CC(C)(C)C3)cc1C -9.94%
